Source: a collection of fitness landscapes (doi:10.1016/j.celrep.2020.107928)
In all, about 81,000 sequences were measured (“one-hybrid fitness for binding NBS DNA”: median about -0.1, highest 2% from about 0.36 on). Some of the results follow.

B1: Caulobacter ParB omega fusion; a variant is named by its letters at X, in order, B8GW30 (parent)
chain: MESVVVGEPGMSEGRRGLGRGLSALLGEVDAAPAQAPGEQLGGSREAPIEILQRNPDQPRRTFREEDLEDLSNSIREKGVLQPILVRPSPDTAGEYQIVAGERAWRAAQRAGLKTVPIMVRELDDLAVLEIGIIENVQRADLNVLEEALSYKVLMEKFERTQENIAQTIGKSXSHVANXMRLLXLPDEVQSYLVSGELTAXHARAIAAAADPVALAKQIIEGGLSVRETEALARKAPNLSAGKSKGGRPPRVKDTDTQALESDLSSVLGLDVSIDHRGSTGTLTITYATLEQLDDLCNRLTRGI

Variants of: B1
Experiment: one-hybrid fitness for binding NBS DNA (the Noc-binding site; scaled: cognate 1, non-cognate 0); higher = stronger binding
Conditions: with NBS DNA site
Outline: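 Selection: bacterial one-hybrid in E. coli USO, HIS3 reporter with the site 19 bp from the promoter, 48 hours at 37°C on M9-minus-histidine plus 0.1 mM IPTG and 5 mM 3-AT. Libraries were Caulobacter ParB with four randomised specificity codons, sequenced on Illumina before and after selection. Fitness is the rescaled log change in variant-to-wild-type read ratio, anchored to the cognate and non-cognate sites.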

Row | Variant | one-hybrid fitness for binding NBS DNA
1 | YVDR | ≤ 0.2
2 | LYCY | ≤ 0.2
3 | DQQT | ≤ 0.2
4 | EVWT | ≤ 0.2
5 | DYKL | ≤ 0.2
6 | AFNW | ≤ 0.2
7 | AKCG | ≤ 0.2
8 | REPH | ≤ 0.2
9 | YNQS | ≤ 0.2
10 | PPIL | ≤ 0.2
11 | RKWC | ≤ 0.2
12 | GNLI | ≤ 0.2
13 | THSI | ≤ 0.2
14 | RWTM | ≤ 0.2
15 | ADAC | ≤ 0.2
16 | GPCC | ≤ 0.2
17 | SNTK | ≤ 0.2
18 | EMYS | ≤ 0.2
19 | RMMS | 0.289
20 | SFPL | ≤ 0.2
21 | QTNV | 0.346
22 | QKFG | ≤ 0.2
23 | RGRM | ≤ 0.2
24 | HNFW | ≤ 0.2
25 | DLWG | ≤ 0.2
26 | YKTT | ≤ 0.2

Row | Variant | one-hybrid fitness for binding NBS DNA
27 | RSWT | 0.215
28 | EDGL | ≤ 0.2
29 | VEDR | ≤ 0.2
30 | LQSI | ≤ 0.2
31 | ADNV | ≤ 0.2
32 | FNNS | ≤ 0.2
33 | SYLW | ≤ 0.2
34 | NIRA | ≤ 0.2
35 | YKVS | ≤ 0.2
36 | STHP | ≤ 0.2
37 | LHAS | ≤ 0.2
38 | VRNQ | ≤ 0.2
39 | MTRM | ≤ 0.2
40 | ENNS | ≤ 0.2
41 | AGPC | ≤ 0.2
42 | QYAC | ≤ 0.2
43 | RRIH | 0.338
44 | QSKA | 0.558
45 | MNDD | ≤ 0.2
46 | PPRN | ≤ 0.2
47 | NDTY | ≤ 0.2
48 | RVGS | 0.463
49 | PYKV | ≤ 0.2
50 | QHGI | ≤ 0.2
51 | VGGG | ≤ 0.2
52 | TFCY | ≤ 0.2

Row | Variant | one-hybrid fitness for binding NBS DNA
53 | RLNT | 0.528
54 | DKRI | ≤ 0.2
55 | RCGG | ≤ 0.2
56 | DRDY | ≤ 0.2
57 | HYMV | ≤ 0.2
58 | PMAF | ≤ 0.2
59 | QAWA | ≤ 0.2
60 | EQRT | ≤ 0.2
61 | ANMW | ≤ 0.2
62 | ISFR | ≤ 0.2
63 | KDVG | ≤ 0.2
64 | MPPS | ≤ 0.2
65 | RKMA | 0.26
66 | LMRW | ≤ 0.2
67 | SLLH | ≤ 0.2
68 | NWNQ | ≤ 0.2
69 | QHNP | ≤ 0.2
70 | SNIL | ≤ 0.2
71 | FDQS | ≤ 0.2
72 | TIVG | ≤ 0.2
73 | ETKG | ≤ 0.2
74 | PPRT | ≤ 0.2
75 | NSEV | ≤ 0.2
76 | RSWL | ≤ 0.2
77 | QIHC | ≤ 0.2
78 | RHYY | ≤ 0.2

Row | Variant | one-hybrid fitness for binding NBS DNA
79 | IYLR | ≤ 0.2
80 | RLNI | ≤ 0.2
81 | KTAF | ≤ 0.2
82 | TEPL | ≤ 0.2
83 | CTVD | ≤ 0.2
84 | DSNP | ≤ 0.2
85 | PATQ | ≤ 0.2
86 | VKDI | ≤ 0.2
87 | VLYA | ≤ 0.2
88 | PTAA | ≤ 0.2
89 | PRSY | ≤ 0.2
90 | SMSG | ≤ 0.2
91 | TYDS | ≤ 0.2
92 | ETHR | ≤ 0.2
93 | PHNT | ≤ 0.2
94 | FFGV | ≤ 0.2
95 | NIYG | ≤ 0.2
96 | VPHI | ≤ 0.2
97 | IKPF | ≤ 0.2
98 | AKLR | ≤ 0.2
99 | TIIA | ≤ 0.2
100 | RWNA | ≤ 0.2
101 | CTPF | ≤ 0.2
102 | GKIS | ≤ 0.2
103 | MFVC | ≤ 0.2
104 | NLSH | ≤ 0.2

Row | Variant | one-hybrid fitness for binding NBS DNA
105 | TRAW | ≤ 0.2
106 | RLCF | ≤ 0.2
107 | HCYS | ≤ 0.2
108 | TVCG | ≤ 0.2
109 | IIYS | ≤ 0.2
110 | PTFS | ≤ 0.2
111 | AFKS | ≤ 0.2
112 | RAIC | ≤ 0.2
113 | WGSC | ≤ 0.2
114 | YLCT | ≤ 0.2
115 | NWRK | ≤ 0.2
116 | MFTH | ≤ 0.2
117 | GLGV | ≤ 0.2
118 | HSTQ | ≤ 0.2
119 | LIKP | ≤ 0.2
120 | EDAR | ≤ 0.2
121 | WLAW | ≤ 0.2
122 | GVNW | ≤ 0.2
123 | AETG | ≤ 0.2
124 | PHSS | ≤ 0.2
125 | PARE | ≤ 0.2
126 | ECYR | ≤ 0.2
127 | TMFR | ≤ 0.2
128 | RYPK | ≤ 0.2
129 | TVYS | ≤ 0.2
130 | TILT | ≤ 0.2

Row | Variant | one-hybrid fitness for binding NBS DNA
131 | IQPH | ≤ 0.2
132 | KYCL | ≤ 0.2
133 | WVGN | ≤ 0.2
134 | HTVD | ≤ 0.2
135 | QWSY | ≤ 0.2
136 | KWHS | ≤ 0.2
137 | RTGG | ≤ 0.2
138 | ADKE | ≤ 0.2
139 | HWYS | ≤ 0.2
140 | AFVG | ≤ 0.2
141 | PCAV | ≤ 0.2
142 | HRCD | ≤ 0.2
143 | EPYC | ≤ 0.2
144 | QTAM | 0.233
145 | FRRQ | ≤ 0.2
146 | QKHQ | ≤ 0.2
147 | QQYV | ≤ 0.2
148 | GTCQ | ≤ 0.2
149 | RTRF | ≤ 0.2
150 | EVRL | ≤ 0.2
151 | GGKC | ≤ 0.2
152 | ERPI | ≤ 0.2
153 | YCQS | ≤ 0.2
